# According to PubChem BioAssay AID686978 (National Center for Advancing Translational Sciences (NCATS), 2013):
# Out of some 420,000 compounds screened, about 64,000 (15%) were called active. The inconclusive results got no clear call from the source; some entries with a clear call stand among them for comparison. Calls come from the whole dose curve; as a rule, active = well fitted inhibition curve with a large enough effect; inconclusive = small, poorly fitted or top-dose-only effect; inactive = flat fitted curve, though single readings scatter. No potency is given beside an inconclusive call; the fits are too rough.
# Assay: qHTS for Inhibitors of human tyrosyl-DNA phosphodiesterase 1 (TDP1): qHTS in cells in absence of CPT; note: nearly all actives have a fitted effect of over 55% in size
# Conditions: DT40 Tdp1-/- hTDP1 cells, no CPT, ATP luminescence, 48 h; activity change, negative = growth inhibition: at 46.2 µM (top of the series)
# Outline: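 Luminescent ATP content (CellTiter-Glo) served as the growth readout. Knockout chicken DT40 cells expressing human TDP1 were exposed to compounds without camptothecin for a minimum 48 hr at 37 °C.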
# % is set by controls: 0 for no effect and ±100 for the full control effect; potency is the fitted concentration of half-maximal effect; tags give direction and shape of the fitted curve.
SMILES,Potency,"activity change, negative = growth inhibition"
CCCOc1ccc2c3c(c(=O)oc2c1OCCC)CCCC3,"inconclusive [inhibitor, single point]",
Cc1ccc(NC(=O)CCN2C(=O)C3C4CCC(C4)C3C2=O)cc1Cl (stereo not given),inactive,
Cc1cnc(SCc2ccccn2)nc1C1CCCN(C(=O)c2ccc3c(c2)OCO3)C1 (stereo not given),"inconclusive [inhibitor, single point]",
CC(C)CCn1c(=O)c2ccccc2n2c(CCC(=O)NC3CCN(Cc4ccccc4)CC3)nnc12,"inconclusive [inhibitor, partial curve]",
CCOc1ccc(C2N3CC4(C(C)C)CN2CC(C(C)C)(C3)C4=O)cc1OC (stereo not given),"inconclusive [inhibitor, single point]",
CCOc1ccccc1-n1c(SCC(=O)N2CCCc3ccccc32)nnc1-c1cccnc1,"inconclusive [inhibitor, single point]",
CC1CCCC(C)N1C(=O)COC(=O)CCC(=O)c1cccs1 (stereo not given),inactive,
COc1cccc(NC(=O)CN2CCN(c3ccc(F)cc3)CC2)c1,"inconclusive [inhibitor, partial curve, poor fit]",
CCCn1c(N)c(N2CCCCC2)c(=O)n(CC(=O)Nc2ccccc2C(F)(F)F)c1=O,inactive,
CC(=O)N(NC(=O)c1ccc(C)cc1)C1CC(=O)N(c2ccccc2Cl)C1=O (stereo not given),inactive,
Cc1ccc(C)c(S(=O)(=O)N2CCN(C(=O)c3ccc(N4CCCC4)c([N+](=O)[O-])c3)CC2)c1,"inconclusive [inhibitor, single point]",
COc1ccc(/C=C/C(=O)N2CCC(c3nc4ccccc4o3)CC2)cc1OC,active: 16.4 µM,
C=CCOc1c(Br)cc(CNc2ccc(NC(=O)C(C)C)c(OC)c2)cc1OCC,active: 16.4 µM,
Oc1ccc(N2CCN(Cc3ccc(OCCCN4CCCCC4)cc3)CC2)cc1,"inconclusive [inhibitor, single point]",
CCCCCCCCCCCCCCCC(=O)C(F)(F)F,inactive,
CC(C)(C)c1ccc(S(=O)(=O)N2CCN(c3nc(-c4ccccc4)nc4ccccc34)CC2)cc1,inactive,
CCCCCCCOc1ccc(OC(=O)c2cccnc2)cc1,active: 8.2 µM,
COc1cc(CN2CCC(n3nccc3NC(=O)C3CC3)CC2)cc(OC)c1,inactive,
Cc1ccc(NC(=O)c2ccc(=O)n(CC(=O)Nc3c(C)cc(C)cc3C)n2)cc1,"inconclusive [inhibitor, single point]",
COc1ccc(F)c(CN2CCCC(CO)(Cc3cccc(Cl)c3)C2)c1 (stereo not given),"inconclusive [inhibitor, partial curve, poor fit]",
COc1cccc(C(c2nnnn2Cc2ccco2)N2CCN(c3cccc(C)c3C)CC2)c1OC (stereo not given),active: 25.9 µM,
O=C1/C(=C/c2cccc([N+](=O)[O-])c2)Oc2cc(O)ccc21,"inconclusive [inhibitor, single point]",
CCOc1nc(-c2ccc(C)cc2)ccc1-c1noc(COC)n1,"inconclusive [inhibitor, partial curve]",

SMILES,Potency,"activity change, negative = growth inhibition"
CCCCn1c(Cc2ccccc2)n[nH]c1=S,"inconclusive [inhibitor, single point]",
COc1ccccc1Cc1c(-c2ccco2)nc2c3ccccc3ccn12,active: 16.4 µM,
Cc1cccc(C(C)(C)C)c1OCCOCCN1CCCC1,"inconclusive [inhibitor, single point]",
CCOC(=O)c1c(NC(=O)CN2CCN(S(=O)(=O)c3cc(Cl)ccc3Cl)CC2)sc(C(=O)N(C)C)c1C,"inconclusive [inhibitor, single point]",
CCOc1ccc(C2C=C(c3cccc(OC)c3)Nc3nnnn32)cc1 (stereo not given),"inconclusive [inhibitor, single point]",
Cc1cc(=O)[nH]c(SCc2nc3ccc([N+](=O)[O-])cc3[nH]2)n1,inactive,
CC(OC(=O)c1ccc(-c2ccc(O)cc2)cc1)C(=O)NC1CCCCC1C (stereo not given),"inconclusive [inhibitor, partial curve]",
COc1ccc(C(=O)N2CC(=O)Nc3ccc(C)cc3C2c2ccccc2)cc1OC (stereo not given),"inconclusive [inhibitor, single point]",
Cc1cnc(CNc2nc3cc(-c4ccccc4C)sc3c(=O)n2C)cn1,"inconclusive [inhibitor, single point]",
COc1ccc(-n2nc(C(=O)Nc3ccc(Br)cc3C)c3c4ccccc4n(C)c3c2=O)cc1,inactive,
CN(CC(=O)Nc1ccccc1C(F)(F)F)C(=O)c1cc(Cl)nc2ccccc12,inactive,
COc1ccc(NC(=O)CN(C)C(=O)c2ccc(S(=O)(=O)Nc3ccccc3C)cc2)cc1,"inconclusive [inhibitor, single point]",
O=C1CCc2ccc(OCCCCN3CCN(c4cccc(Cl)c4Cl)CC3)cc2N1,active: 14.6 µM,
Cc1cc(C)c2[nH]c(O)c(N=NC(=S)NCC3CCCO3)c2c1 (stereo not given),active: 6.51 µM,
O=[N+]([O-])c1cccc2c(N3CCOCC3)ccnc12,active: 14.6 µM,
CCOC(=O)CSc1nc(N)cc(=O)[nH]1,,inconclusive: -31% [inhibitor]
Cc1ccc(NC(NC(=O)Cc2ccccc2)C(Cl)(Cl)Cl)cc1 (stereo not given),"inconclusive [inhibitor, partial curve, poor fit]",
CC(C)(C)c1ccc(C(=O)NNc2ncnc3c2cnn3-c2ccccc2)cc1,"inconclusive [inhibitor, single point]",
O=C(N/N=C/C=C/c1cccc([N+](=O)[O-])c1)c1ccncc1,"inconclusive [inhibitor, single point]",
O=C(CSc1ccc(-c2cccnc2)nn1)c1ccc([N+](=O)[O-])cc1,"inconclusive [inhibitor, partial curve, poor fit]",
O=C(COc1ccccc1)NCC(c1cccs1)S(=O)(=O)c1ccc(Cl)cc1 (stereo not given),active: 23.1 µM,
CCOC(=O)c1c(C)[nH]c(C)c1C(=O)CSc1nc2ccccc2n1CC,"inconclusive [inhibitor, partial curve]",
